The record followed here is PubChem BioAssay AID360 (National Center for Advancing Translational Sciences (NCATS), 2006).

Molecules are shown by their SMILES. Among all 48,000 compounds or so, about 550 (1.1%) were called active. Inconclusive results (about 4%) are left out. Cut-off read from the data, not from the text of the source: active = potency below about 15 µM; inconclusive = mostly about 16 µM to 33 µM; inactive = weaker than that. Some of the results follow.
Potency is the fitted concentration of half-maximal effect.

UniProt P04062, sequence (P04062 whole entry, looked up): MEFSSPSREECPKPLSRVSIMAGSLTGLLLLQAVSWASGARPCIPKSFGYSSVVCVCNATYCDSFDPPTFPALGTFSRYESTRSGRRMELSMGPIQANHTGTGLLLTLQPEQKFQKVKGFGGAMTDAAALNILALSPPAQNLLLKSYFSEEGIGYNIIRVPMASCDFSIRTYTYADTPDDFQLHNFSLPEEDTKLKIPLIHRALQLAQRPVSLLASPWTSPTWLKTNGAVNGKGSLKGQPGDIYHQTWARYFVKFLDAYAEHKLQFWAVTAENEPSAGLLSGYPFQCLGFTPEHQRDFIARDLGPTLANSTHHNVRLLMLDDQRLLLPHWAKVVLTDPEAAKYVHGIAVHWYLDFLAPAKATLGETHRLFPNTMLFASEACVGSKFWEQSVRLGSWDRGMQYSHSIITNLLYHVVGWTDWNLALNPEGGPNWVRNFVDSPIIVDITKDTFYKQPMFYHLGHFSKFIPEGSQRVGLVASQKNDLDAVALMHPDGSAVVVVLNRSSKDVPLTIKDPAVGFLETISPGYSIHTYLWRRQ

The target of this experiment is Lysosomal acid glucosylceramidase (Homo sapiens) (UniProt P04062). Briefly: Glucocerebrosidase.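 Note: the screen sought inhibitors.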 The settings on record: purified enzyme, resorufin glucoside fluorescence (screen aimed at inhibitors), 20 min. The method in brief:
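Normal human glucocerebrosidase (0.2 nM final) was assayed with resorufin β-D-glucopyranoside (30 uM final) in 50mM citric acid/KH2PO4, 10mM sodium taurocholate, 0.01% tween-20, pH 5.9. Compounds were titrated; fluorescence (Ex 548, Em 600) read after 20 min at RT.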
Consider `O=C(O)c1cccc(NC(=O)C23CC4CC(C2)CC(n2cnc(Cl)n2)(C4)C3)c1`, for which the Potency was inactive: > 76.9 µM. Take `COc1ccc(-c2nnc3sc(-c4cccs4)nn23)cc1OC`: the Potency is inactive: > 76.9 µM. In the case of `Cc1cccn2c(=O)c3cc(C(=O)NCc4ccccn4)n(C)c3nc12`, the Potency was inactive: > 76.9 µM.

For `CCC(C(=O)OC)n1cnc2c(nnn2-c2ccc(OC)cc2)c1=O` (centres undefined), the Potency is inactive: > 76.9 µM. In the case of `O=C(COC(=O)COc1ccccc1)Nc1ccccc1OC(F)F`, the Potency is inactive: > 76.9 µM.

Turning to `CC1(C)CC(O)C(CCC(O)c2ccccc2)C(C)(C)N1` (centres undefined), the Potency was inactive: > 76.9 µM. For `CC(C#N)Sc1ncnc2sc3c(c12)CCC3` (centres undefined) the value was inactive: > 76.9 µM; for `COc1ccc(OC)c(S(=O)(=O)NCc2cn3cccc(C)c3n2)c1`, inactive: > 76.9 µM; for `Cc1ccsc1C(=O)Nc1nnc(-c2ccco2)o1`, inactive: > 76.9 µM. For `CC(=O)Nc1ccc(S(=O)(=O)CCC#N)cc1` the value was inactive: > 76.9 µM; for `Cc1cc(C)n(-c2nc3ccccc3[nH]c2=O)n1`, inactive: > 76.9 µM; for `Nc1ccc(SCCN2C(=O)c3ccccc3C2=O)cc1`, inactive: > 76.9 µM. Consider `COc1cc(S(=O)(=O)N(Cc2ccco2)C2CCCC2)ccc1-n1cnnn1`, for which the Potency is inactive: > 76.9 µM. As to `COc1ccc(OC)c(NC(=O)C23CCC(C)(C(=O)C2)C3(C)C)c1` (centres undefined), the Potency is inactive: > 76.9 µM. As for `C[C@H](NC(=O)OC(C)(C)C)c1nnc(SCC(N)=O)o1`, the figure is inactive: > 76.9 µM; as for `C/C(=N\O)C1(C)N(O)C(C)(C)C(c2ccc(Br)cc2)=[N+]1[O-]` (centres undefined), inactive: > 76.9 µM; as for `O=C(O)CSc1nnc(-c2cccnc2)n1Cc1ccccc1`, inactive: > 76.9 µM.

On to `COc1ccc(CNC(=O)CCS(=O)(=O)c2cccc3nonc23)cc1`, for which the Potency is inactive: > 76.9 µM. As for `Cc1cc(C)nc(NC(=O)c2c(-c3ccccc3Cl)noc2C)n1`, the figure is inactive: > 76.9 µM; as for `CCOC(=O)Cn1nc(-c2ccc(C)cc2)ccc1=O`, inactive: > 76.9 µM.

Regarding `O=C(Cn1cnc2sc(-c3ccccc3)cc2c1=O)NCc1ccco1`, the Potency is inactive: > 76.9 µM. For `CSc1nc2c(c(=O)n1-c1ccc(C)cc1)SCC2` the value was inactive: > 76.9 µM; for `O=C(c1ccc2c(c1)OCO2)N1CCc2ccccc2C1`, inactive: > 76.9 µM; for `Cc1cc(-c2nnc(SCc3cccnc3)o2)no1`, inactive: > 76.9 µM.

As for `O=C(Nc1cc(C(F)(F)F)ccc1Cl)c1cc(C2CC2)on1`, the Potency is inactive: > 76.9 µM. In the case of `CCc1ccccc1N(C(=O)c1cccs1)C1C=CS(=O)(=O)C1` (centres undefined), the Potency is inactive: > 76.9 µM.

With `Cc1ccc(-c2ccc(=O)[nH]n2)cc1`, the Potency is inactive: > 76.9 µM. For `COc1ccc(N2CCN(C(=O)CSc3ncccc3-c3nc4ccccc4[nH]3)CC2)cc1` the value was inactive: > 76.9 µM; for `COC(=O)c1sccc1NC(=O)c1cccnc1`, inactive: > 76.9 µM.

Regarding `Cn1nnnc1SCC(=O)Nc1ccccc1N1CCCCC1`, the Potency is inactive: > 76.9 µM.

`CCOC(=O)C1CCCN(Cc2cccc(Cl)c2)C1` (centres undefined): the Potency is inactive: > 76.9 µM.

`COc1ccc(NC(=O)c2oc3ccccc3c2NC(=O)c2ccco2)c(OC)c1`: the Potency was inactive: > 76.9 µM. As for `CCCCOc1ccc(-c2nnn(C(C)(C)C(=O)OC)n2)cc1`, the figure is inactive: > 76.9 µM. Consider `CSCC[C@H](NC(=O)OC(C)(C)C)c1nnc(SCC(=O)Nc2c(C)cccc2C)o1`, for which the Potency is inactive: > 76.9 µM. As for `Cc1ccc(NC(=O)CN(C)S(=O)(=O)c2cccc3nsnc23)cc1Cl`, the figure is inactive: > 76.9 µM. As for `O=C(CCN1C(=O)c2ccccc2C1=O)N1CCN(c2ccccn2)CC1`, the Potency is inactive: > 76.9 µM. For `CCOC(=O)c1cnc2c(C(F)(F)F)cccc2c1N1CCOCC1`, the Potency is inactive: > 76.9 µM. As for `C=CCn1c(SC(C)C(=O)NCc2ccc3c(c2)OCO3)nnc1C1CCCCC1` (centres undefined), the figure is inactive: > 76.9 µM; as for `CC(=O)Nc1ccc(N2S(=O)(=O)c3ccccc3S2(=O)=O)cc1`, “inactive”; as for `CCCCOC(=O)c1ccc(NC(=O)C2CCCO2)cc1` (centres undefined), inactive: > 76.9 µM. For `O=C(c1cccc(S(=O)(=O)N2CCCC2)c1)c1nnc(-c2ccncc2)o1` the value was inactive: > 76.9 µM; for `CCC1CCCCN1CCNS(=O)(=O)c1ccc2c(c1)CCN2C(C)=O` (centres undefined), inactive: > 76.9 µM; for `CCOc1cc2oc(=O)c3c(c2cc1Cl)CCC3`, inactive: > 76.9 µM. As for `CCC(C)NC(=O)C1CC(c2ccc(OC)cc2)=NO1` (centres undefined), the figure is inactive: > 76.9 µM; as for `COc1ccc(-c2ccc(SCC(=O)N3CCOCC3)nn2)cc1OC`, inactive: > 76.9 µM; as for `O=C(CCc1nc2ccccc2s1)OCC(=O)N1CCN(C(=O)c2ccco2)CC1`, inactive: > 76.9 µM. Turning to `Cc1ccc(C)n1-c1ccc(C(=O)N2CCOCC2)cc1`, the Potency was inactive: > 76.9 µM.

As for `Cc1nc2sc3c(c2c(=O)o1)CCCC3`, the Potency was inactive: > 76.9 µM. As for `CCCc1[nH]nc2c1C(c1ccncc1)C(C#N)=C(N)O2` (centres undefined), the figure is inactive: > 76.9 µM. For `CCN(CC)CCCN(Cc1cc2cc(OC)ccc2[nH]c1=O)C(=O)Nc1ccccc1` the value was inactive: > 76.9 µM; for `O=c1cc(CSc2nnnn2-c2ccccc2)[nH]c2[nH]n(-c3ccccc3)c(=O)c12`, inactive: > 76.9 µM. `Cc1cc(C)n(C(=O)c2cccc(S(=O)(=O)N3CCOCC3)c2)n1`: the Potency is inactive: > 76.9 µM. As for `N#Cc1ccsc1NC(=O)c1ccccn1`, the figure is inactive: > 76.9 µM; as for `CCCCOc1ccccc1C(=O)NCC(=O)O`, inactive: > 76.9 µM; as for `COC(=O)c1cccc2c1-c1ccccc1/C2=N/O`, inactive: > 76.9 µM. For `Cc1ccc(-n2nnnc2SCC(=O)Nc2ccccc2N2CCCCC2)cc1C` the value was inactive: > 76.9 µM; for `CCCCn1c(CN2CCN(C(=O)OCC)CC2)nc2c1c(=O)[nH]c(=O)n2C`, inactive: > 76.9 µM. As for `CCC(C)(C)n1nnnc1C(c1cc2cc(OC)c(OC)cc2[nH]c1=O)N1CCc2ccccc21` (centres undefined), the entry is “inactive”; as for `Cn1c(SCC(=O)c2ccc3c(c2)OCO3)nnc1-c1ccccn1`, inactive: > 76.9 µM.
